Measured values taken from PubChem BioAssay AID1477 (National Center for Advancing Translational Sciences (NCATS), 2009).
The campaign covered roughly 230,000 compounds. Fewer than 10 were called active. The shares of active, inactive and inconclusive entries below differ from those in the screen. Calls come from the whole dose curve; as a rule, active = well fitted curve in the direction sought with a large enough effect; inconclusive = small, poorly fitted or top-dose-only effect, or effect the other way, or another doubt; inactive = no such curve, though single readings can be large or run the other way. No potency is given beside an inconclusive call; the fits are too rough.

target: Runt-related transcription factor 1 (Homo sapiens) + Core-binding factor subunit beta (Homo sapiens) (UniProt Q01196+Q13951); test: qHTS Assay for Compounds Blocking the Interaction Between CBF-beta and RUNX1 for the Treatment of Acute Myeloid Leukemia; settings: AlphaScreen CBFb-His/RUNX1-biotin binding, biochemical; activity, negative = inhibition: at 59.8 µM (top of the series) unless noted; for activity, negative = inhibition: % of control where 0% means no effect
UniProt Q01196, sequence (Q01196 whole entry, looked up): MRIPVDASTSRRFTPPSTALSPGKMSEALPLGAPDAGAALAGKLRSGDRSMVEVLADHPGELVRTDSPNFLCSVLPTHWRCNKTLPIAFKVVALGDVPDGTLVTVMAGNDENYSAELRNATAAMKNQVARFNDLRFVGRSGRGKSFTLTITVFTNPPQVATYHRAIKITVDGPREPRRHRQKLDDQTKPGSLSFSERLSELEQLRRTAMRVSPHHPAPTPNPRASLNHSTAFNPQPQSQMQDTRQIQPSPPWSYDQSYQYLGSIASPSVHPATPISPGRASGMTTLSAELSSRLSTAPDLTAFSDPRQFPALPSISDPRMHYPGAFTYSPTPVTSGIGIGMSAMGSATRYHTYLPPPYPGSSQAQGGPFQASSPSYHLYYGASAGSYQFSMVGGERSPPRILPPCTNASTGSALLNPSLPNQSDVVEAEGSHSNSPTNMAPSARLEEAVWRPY
UniProt Q01196, sequence (Q13951 whole entry, looked up): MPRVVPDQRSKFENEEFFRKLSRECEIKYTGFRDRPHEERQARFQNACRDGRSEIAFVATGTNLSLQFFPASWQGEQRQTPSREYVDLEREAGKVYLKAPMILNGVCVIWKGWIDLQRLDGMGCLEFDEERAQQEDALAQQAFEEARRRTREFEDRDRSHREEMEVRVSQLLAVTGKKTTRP
Outline: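 CBF-beta (His) and RUNX1 (biotin), 30 nM each; 20 min preassociation; + compound, 15 min; + beads 50 ng each (Ni, streptavidin), 90 min; RT; AlphaScreen read.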

SMILES | activity, negative = inhibition | Potency
CCC(=O)NCCCC[C@H](NC(=O)OCc1ccccc1)C(=O)Nc1ccc2c(C)cc(=O)oc2c1 | inactive: 6.05% | 
CC(C)c1ccc(N2C(=O)/C(=C/N(C)C)SC2=S)cc1 |  | inconclusive [inhibitor, single point]
O=c1ccc(/C=C/c2ccccc2)nn1Cc1ccc(F)cc1 |  | inconclusive [activator, single point]
COc1ccc(CN(Cc2ccc(C(=O)O)cc2)C(=S)Nc2ccc(C)cc2)cc1OC |  | inconclusive [activator, partial curve]
O=C(NCCCN1CCCC1)c1ccc2c(c1)N(Cc1ccccc1)CCS2 |  | inconclusive [inhibitor, single point]
Cc1nc2ccccc2n(CC(=O)Nc2cc(Cl)cc(Cl)c2)c1=O |  | inconclusive [inhibitor, single point]
COc1ccc2ccccc2c1C(=O)/C=C\c1ccoc1 |  | inconclusive [inhibitor, partial curve, poor fit]
O=S(=O)(c1ccc(Cl)cc1)c1ccc(Cl)cc1 |  | inconclusive [activator, partial curve, poor fit]
Cn1c(NC(=O)c2ccc(Br)o2)cc(=O)n(C)c1=O | inactive: -8.28% | 
Cc1[nH]nc2c1C(c1ccc(F)cc1)C(C#N)=C(N)O2 (stereo not given) | inactive: 1.5% | 
O=C(/C=C/c1ccc(O)c(O)c1)OC(Cc1ccc(O)c(O)c1)C(=O)O (stereo not given) |  | inconclusive [inhibitor, partial curve]
CC(C)C(=O)N1CCN(c2ccc([N+](=O)[O-])c(NC(C)c3ccccc3)c2)CC1 (stereo not given) |  | inconclusive [inhibitor, single point]
CCc1ccccc1NC(=O)CC(O)(C(=O)OC)C(F)(F)F (stereo not given) | inactive: 9.11% | 
Cn1ccnc1C1CCCCN1Cc1nc(-c2ccc(Cl)cc2)no1 (stereo not given) | inactive: 2.6% | 
S=c1[nH]c(-c2ccccc2)cn1/N=C/c1cccc2ccccc12 |  | inconclusive [inhibitor, single point]
CCc1ccc(C(=O)NC(=S)Nc2ccc(N3CCOCC3)cc2)cc1 |  | inconclusive [inhibitor, partial curve]
CCCCN=C1NN=C(c2ccc(C)c(C)c2)CS1 |  | inconclusive [inhibitor, partial curve]
COc1ccccc1-c1nnc(SCC(=O)Nc2ccc(Cl)cc2Cl)o1 | inactive: 1.36% | 

SMILES | activity, negative = inhibition | Potency
CCOc1ccccc1NC(=O)c1ccccc1-c1nc(-c2ccccc2)no1 |  | inconclusive [activator, single point]
O=C(N/C(=C/c1ccc(Br)cc1)C(=O)N1CCCC1)c1ccccc1F | inactive: 1.73% | 
COc1ccc(CNc2nc(NCc3ccc(OC)cc3)c3ncn(C(C)C)c3n2)cc1 |  | inconclusive [inhibitor, single point]
O=c1[nH]n2c(=O)c3c([nH]c2c1N=Nc1ccccc1)CCC3 |  | inconclusive [inhibitor, single point]
Cc1ccc(C)cc1 | inactive: -10% [at 21.7 µM] | 
C=CCn1c(O)c(C(C)=NCCN2CCN(C(=S)NC)CC2)c(=O)[nH]c1=O | inactive: 7.85% | 
CCCN1CCC(=O)N(CCSc2ccc(Br)cc2)CC1 | inactive: 13.5% | 
c1ccc(-c2nc(NCc3ccco3)c3ccccc3n2)nc1 |  | inconclusive [inhibitor, partial curve]
O=C(CSc1nc2cc(Cl)ccc2s1)N1CCCc2ccccc21 |  | inconclusive [activator, partial curve, poor fit]
CCOc1cc(/C=C2\C(=O)N(c3ccc(C(N)=O)cc3)N=C2C)ccc1OC(=O)c1cccs1 |  | inconclusive [inhibitor, partial curve]
CCN(CC)c1ccc(NC(=S)Nc2ccc(F)cc2)cc1 |  | inconclusive [inhibitor, single point]
COc1ccccc1/C=C/C=N/n1c(-c2ccc(Cl)cc2)n[nH]c1=S | inactive: -7.02% | 
COc1ccc(/C=C2\SC(=S)N(CCCC(=O)Nc3ccc(O)cc3)C2=O)cc1 |  | inconclusive [inhibitor, single point]
COC(=O)c1ccc(NC(=S)N2CCN(Cc3ccc(Cl)cc3)CC2)cc1 | inactive: -2.2% | 
OC[C@@H]1[C@@H](c2ccc(Cl)cc2)C(c2ccccc2)=NN1c1ccccc1 |  | inconclusive [activator, single point]
Cc1ccc(C(=O)c2cc([N+](=O)[O-])ccc2N2CCOCC2)cc1C | inactive: 9.03% | 
CN(Cc1cccc2cnccc12)C(=O)CCc1nnc(CCc2ccccc2)o1 | inactive: -0.259% | 
